From PubChem BioAssay AID1468 (National Center for Advancing Translational Sciences (NCATS), 2008)
Where “and” joins values, the source holds several entries; their conditions need not be identical. Equal entries are not always repeated. The campaign covered roughly 280,000 compounds. About 1,100 (0.39%) were called active. Inconclusive means that the source gave no clear call. Such entries were picked first, then a sample of the others. Calls follow the shape of the dose curve; as a rule, active = well fitted inhibition curve with a large enough effect; inconclusive = small, poorly fitted or top-dose-only effect, or effect the other way; inactive = flat fitted curve, though single readings scatter. Potencies beside an inconclusive call are fits to weak or partial responses and may not hold up.

Target: Microtubule-associated protein tau (Homo sapiens) (UniProt P10636)
Test: qHTS for Inhibitors of Tau Fibril Formation, Fluorescence Polarization; also: nearly all actives have a fitted effect of over 55% in size
Conditions: K18 P301L tau heparin fibrillization, Alexa594 FP, 6 h; series mostly up to 57.7 µM; activity, negative = inhibition: at the top concentration
In short: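 FP of Alexa 594-tau after heparin (20 uM) induction. Substrate: human K18 P301L, 15 uM unlabeled, 0.24 uM labeled. Buffer 100 mM sodium acetate pH 7. 6 hr, 37 C.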
% is scaled to controls: 0 for no effect and ±100 for the full control effect; potency is read from the fitted curve at half-maximal effect; tags tell the direction and shape of the fitted curve.

UniProt P10636, sequence (P10636 whole entry, looked up): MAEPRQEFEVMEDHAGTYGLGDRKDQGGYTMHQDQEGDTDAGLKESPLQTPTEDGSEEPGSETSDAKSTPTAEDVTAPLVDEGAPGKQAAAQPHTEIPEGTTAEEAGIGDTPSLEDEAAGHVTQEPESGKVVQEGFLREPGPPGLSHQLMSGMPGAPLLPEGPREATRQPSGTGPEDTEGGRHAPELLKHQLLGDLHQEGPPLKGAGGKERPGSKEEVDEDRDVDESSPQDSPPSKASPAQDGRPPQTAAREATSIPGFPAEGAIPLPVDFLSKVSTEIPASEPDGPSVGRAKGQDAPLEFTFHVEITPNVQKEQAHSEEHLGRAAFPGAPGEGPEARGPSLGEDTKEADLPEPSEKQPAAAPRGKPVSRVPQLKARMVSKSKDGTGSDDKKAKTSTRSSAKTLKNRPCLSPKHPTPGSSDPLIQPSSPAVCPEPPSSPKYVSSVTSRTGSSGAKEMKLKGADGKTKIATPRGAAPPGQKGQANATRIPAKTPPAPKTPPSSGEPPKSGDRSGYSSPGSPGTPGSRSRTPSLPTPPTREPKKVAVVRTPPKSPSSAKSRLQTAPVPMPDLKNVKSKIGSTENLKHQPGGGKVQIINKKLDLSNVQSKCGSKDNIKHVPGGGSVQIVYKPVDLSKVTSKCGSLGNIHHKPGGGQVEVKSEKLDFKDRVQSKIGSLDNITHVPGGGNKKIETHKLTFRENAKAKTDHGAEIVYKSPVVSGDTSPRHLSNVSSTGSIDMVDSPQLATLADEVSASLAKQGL

Compound	activity, negative = inhibition	Potency
CCn1c(C(=O)N2CCC(C(=O)NCCc3ccc(C)cc3)CC2)cc2sccc21	inactive: 13.2%	
N#Cc1c(C(F)(F)F)cc(-c2ccc(F)cc2)nc1SCC(=O)Nc1ccccc1		inconclusive: 14.1 µM [inhibitor, partial curve]
CCC(C)NC(=O)c1nn(-c2ccc(C)cc2)nc1CO (stereo not given)		inconclusive: 8.91 µM [inhibitor, single point]
Cc1ccc(NC(=O)Cn2c(=O)n(Cc3ccco3)c(=O)c3oc4ccccc4c32)cc1C	inactive: -18.1%	
COc1ccc(-c2cc(C(=O)OC3CCOC3=O)c3ccccc3n2)cc1 (stereo not given)		inconclusive: 11.2 µM [inhibitor, partial curve, poor fit]
O=C(Nc1ccc2nc(SCC(=O)N3CCOCC3)sc2c1)c1cccc(Br)c1	inactive: -13.8%	
Cn1c(SCC(=O)NCCNC(=O)CSc2nnc(C(F)(F)F)n2C)nnc1C(F)(F)F		inconclusive: 14.1 µM [inhibitor, single point]
CCC(=O)C1=C(c2ccc(F)cc2)N(C(=O)CC)n2c(nnc2-c2ccc(OC)cc2)S1		inconclusive: 22.4 µM [inhibitor, single point]
COc1ccc(NC(=S)N/N=C/c2ccc(F)cc2)cc1OC	inactive: -1.16%	
CC1CCN(S(=O)(=O)c2ccc(NC(=O)Cn3nnc(-c4ccccc4)n3)cc2)CC1		inconclusive: 14.1 µM [inhibitor, partial curve]
CC(C(=O)c1ccc(-c2ccccc2)cc1)[n+]1ccccc1 (stereo not given)	inactive: 6.31%	
O=C(N/N=C/c1cccc(F)c1)c1cc(-c2ccco2)nc2ccccc12	inactive: -3.31%	
Cc1cccc(C)c1Nc1nnc(SCc2nc3ccccc3s2)s1	inactive: 7.6%	
CN(C)CCCN(C(=O)/C=C/c1cccs1)c1nc2ccc(F)cc2s1		inconclusive: 39.8 µM [inhibitor, single point]
Cc1ccc(NC2=Nc3ccccc3N3C2=Nc2c(c(C)nn2-c2ccccc2)C3c2ccc(O)c(O)c2)cc1 (stereo not given)	inactive: -3.48%	
Cc1ccc(NC(=S)Nc2ccc(OC(F)F)c(Cl)c2)cc1F		inconclusive: 25.1 µM [inhibitor, single point]
COc1ccc(CN(C(=S)Nc2ccccc2)C2CC(=O)N(c3ccc(Cl)cc3)C2=O)cc1 (stereo not given)		inconclusive: 15.8 µM [inhibitor, partial curve]
Cn1nc(-c2ccc(C(=O)Nc3cccc(Cl)c3)cc2)c2ccccc2c1=O		inconclusive: 2.82 µM [inhibitor, partial curve, poor fit]
O=c1c(-c2ccnn2-c2ccc(F)cc2)cnc2n1CCS2	inactive: 0.125%	
Cc1ccccc1COC(=O)c1nn(-c2ccccc2)nc1N		inconclusive: 14.1 µM [inhibitor, partial curve, poor fit] and inconclusive: 10 µM [inhibitor, partial curve]
